Results taken from the supplement of paper PMC4967469.
pIC50: −log10 of the molar value. By IC50 is meant the dose at which the fit gives 50% viability; a fit beyond the top or the lowest dose is shown as a bound at that dose. AUC, from the same fit, is the share of area under the viability curve across the 256-fold dose range; it is 1 without any effect and falls as sensitivity rises. For some assays here: An inferred top dose comes from the curve model; the source does not state it.

Legend:
Assay in all cases: Viability of human cancer cell lines after 72 h of drug (GDSC screen)
Salubrinal = compound: O=C(/C=C/c1ccccc1)NC(NC(=S)Nc1cccc2cccnc12)C(Cl)(Cl)Cl [Salubrinal]; conditions: top dose 16 µM; top dose inferred
Procedure: (§1)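 Human cancer cell lines in 384-well plates, medium with 10% serum, drug for 72 h over a 256-fold dose range (nine 2-fold or five 4-fold steps up to the top dose). Adherent lines were fixed and stained with the nucleic acid dye Syto60, suspension lines read with resazurin; signal relative to control wells, capped at 0 and 100%. One two-parameter sigmoid per drug and line, fitted in a mixed model over all curves with the slope shared within a line.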

piperlongumine = compound: COc1cc(/C=C/C(=O)N2CCC=CC2=O)cc(OC)c1OC [piperlongumine]; conditions: top dose 10 µM
Procedure: as §1

ABT-263 = compound: CC1(C)CCC(c2ccc(Cl)cc2)=C(CN2CCN(c3ccc(C(=O)NS(=O)(=O)c4ccc(N[C@H](CCN5CCOCC5)CSc5ccccc5)c(S(=O)(=O)C(F)(F)F)c4)cc3)CC2)C1 [ABT-263]; conditions: top dose 2 µM; top dose inferred
Procedure: as §1

GW843682X = compound: COc1cc2ncn(-c3cc(OCc4ccccc4C(F)(F)F)c(C(N)=O)s3)c2cc1OC [GW843682X]; conditions: top dose 0.256 µM
Procedure: as §1

PIK-93 = compound: CC(=O)Nc1nc(C)c(-c2ccc(Cl)c(S(=O)(=O)NCCO)c2)s1 [PIK-93]; conditions: top dose 20 µM
Procedure: as §1

GW 441756 = compound: Cn1cc(/C=C2\C(=O)Nc3cccnc32)c2ccccc21 [GW 441756]; conditions: top dose 2 µM; top dose inferred
Procedure: as §1

Cell Line	AUC (Salubrinal)	pIC50 (Salubrinal)	AUC (piperlongumine)	pIC50 (piperlongumine)	AUC (ABT-263)	pIC50 (ABT-263)	AUC (GW843682X)	pIC50 (GW843682X)	AUC (PIK-93)	pIC50 (PIK-93)	AUC (GW 441756)	pIC50 (GW 441756)
U-87-MG (glioma, adherent)	0.965	< 4.80	0.805	5.21	0.984	< 5.70	0.981	< 6.59	0.784	5.00	0.984	< 5.70
NCI-H720 (lung carcinoid, suspension)	0.789	5.19	0.876	5.07	0.453	7.03	0.916	< 6.59	0.946	< 4.70	0.965	< 5.70
CMK (acute myeloid leukaemia, suspension)	0.892	–	0.819	5.34	0.732	6.30	0.508	7.77	0.662	5.49	0.991	< 5.70
RPMI-8226 (myeloma, suspension)	0.86	4.97	0.72	5.63	0.5	6.90	0.592	7.56	0.711	5.35	0.975	< 5.70
NB10 (neuroblastoma, adherent)	0.97	< 4.80	0.764	5.45	0.986	< 5.70	0.952	< 6.59	0.888	< 4.70	0.851	5.83
TE-9 (oesophagus, adherent)	0.888	< 4.80	0.794	5.32	0.968	< 5.70	0.451	7.93	0.987	< 4.70	0.955	< 5.70
CHP-126 (neuroblastoma, suspension)	0.987	< 4.80	0.813	5.25	0.304	7.46	0.973	< 6.59	0.921	< 4.70	0.987	< 5.70
SK-MM-2 (myeloma, suspension)	0.987	< 4.80	0.843	5.12	0.437	7.08	0.863	6.63	0.522	5.84	0.987	< 5.70
NCI-H345 (small cell lung carcinoma, suspension)	0.972	< 4.80	0.956	< 5.00	0.641	6.50	0.848	6.69	0.986	< 4.70	0.99	< 5.70
SNB75 (glioma, adherent)	0.947	< 4.80	0.788	5.17	0.973	< 5.70	0.704	7.10	0.917	< 4.70	0.967	< 5.70
SK-PN-DW (Ewing sarcoma, adherent)	0.943	< 4.80	0.788	5.34	0.872	< 5.70	0.66	7.34	0.771	5.10	0.933	< 5.70
IST-MEL1 (melanoma, adherent)	0.936	< 4.80	0.684	5.64	0.959	< 5.70	0.615	7.45	0.804	4.91	0.981	< 5.70
MV-4-11 (leukaemia, suspension)	0.775	5.28	0.598	5.96	0.123	7.95	0.578	7.60	0.626	5.59	0.62	6.60
LOUCY (T-cell lymphoblastic leukaemia, suspension)	0.966	< 4.80	0.758	5.54	0.06	> 8.11	0.376	8.11	0.356	6.27	0.992	< 5.70
SK-MEL-2 (melanoma, adherent)	0.973	< 4.80	0.731	5.53	0.908	< 5.70	0.904	< 6.59	0.89	< 4.70	0.922	< 5.70
KURAMOCHI (ovary, adherent)	0.945	< 4.80	0.843	5.06	0.927	< 5.70	0.546	7.66	0.781	5.01	0.903	< 5.70
KGN (ovary, adherent)	0.929	< 4.80	0.682	5.64	0.981	< 5.70	0.647	7.35	0.731	5.18	0.97	< 5.70
OPM-2 (myeloma, suspension)	0.968	< 4.80	0.897	5.08	0.958	< 5.70	0.812	6.97	0.517	5.86	0.992	< 5.70
A101D (melanoma, adherent)	0.853	< 4.80	0.696	5.59	0.875	< 5.70	0.488	7.83	0.747	5.11	0.946	< 5.70
VA-ES-BJ (soft tissue, adherent)	0.951	< 4.80	0.742	5.49	0.933	< 5.70	0.609	7.49	0.885	< 4.70	0.945	< 5.70
OS-RC-2 (kidney, adherent)	0.909	< 4.80	0.661	5.67	0.876	< 5.70	0.772	6.83	0.767	4.96	0.891	< 5.70
MZ2-MEL (melanoma, adherent)	0.874	< 4.80	0.736	5.47	0.867	< 5.70	0.78	6.91	0.747	5.13	0.809	5.90

Cell Line	AUC (Salubrinal)	pIC50 (Salubrinal)	AUC (piperlongumine)	pIC50 (piperlongumine)	AUC (ABT-263)	pIC50 (ABT-263)	AUC (GW843682X)	pIC50 (GW843682X)	AUC (PIK-93)	pIC50 (PIK-93)	AUC (GW 441756)	pIC50 (GW 441756)
NU-DUL-1 (B-cell lymphoma, suspension)	0.923	< 4.80	0.847	5.28	0.647	6.54	0.497	7.80	0.182	6.74	0.991	< 5.70
JiyoyeP-2003 (Burkitt lymphoma, suspension)	0.905	< 4.80	0.838	5.25	0.978	< 5.70	0.831	6.87	0.69	5.40	0.989	< 5.70
NB14 (neuroblastoma, adherent)	0.987	< 4.80	0.813	5.30	0.555	6.76	0.977	< 6.59	0.646	5.51	0.908	< 5.70
COLO-668 (small cell lung carcinoma, adherent)	0.952	< 4.80	0.894	< 5.00	0.924	< 5.70	0.824	6.82	0.845	4.84	0.982	< 5.70
TUR (B-cell lymphoma, suspension)	0.987	< 4.80	0.667	5.76	0.982	< 5.70	0.984	< 6.59	0.513	5.87	0.988	< 5.70
RH-1 (rhabdomyosarcoma, adherent)	0.956	< 4.80	0.722	5.63	0.982	< 5.70	0.74	7.17	0.534	5.82	0.984	< 5.70
ES8 (Ewing sarcoma, adherent)	0.841	5.00	0.643	5.82	0.761	6.18	0.41	8.03	0.628	5.56	0.86	5.83
KM-H2 (Hodgkin lymphoma, suspension)	0.909	< 4.80	0.989	< 5.00	0.955	< 5.70	0.474	7.86	0.884	4.80	0.993	< 5.70
EM-2 (chronic myeloid leukaemia, suspension)	0.888	< 4.80	0.736	5.49	0.47	6.99	0.648	7.36	0.74	5.17	0.958	< 5.70
Becker (glioma, adherent)	0.768	5.17	0.635	5.81	0.965	< 5.70	0.602	7.50	0.842	4.78	0.984	< 5.70
LAN-6 (neuroblastoma, adherent)	0.94	< 4.80	0.782	5.30	0.824	5.82	0.829	6.69	0.936	< 4.70	0.969	< 5.70
PF-382 (T-cell lymphoblastic leukaemia, suspension)	0.935	< 4.80	0.983	< 5.00	0.748	6.24	0.433	7.97	0.432	6.08	0.989	< 5.70
TE-8 (oesophagus, adherent)	0.941	< 4.80	0.739	5.49	0.946	< 5.70	0.356	8.21	0.872	< 4.70	0.984	< 5.70
SK-ES-1 (Ewing sarcoma, semi-adherent)	0.917	< 4.80	0.949	< 5.00	0.519	6.85	0.63	7.43	0.588	5.65	0.985	< 5.70
Calu-6 (lung adenocarcinoma, adherent)	0.875	< 4.80	0.78	5.32	0.87	< 5.70	0.59	7.53	0.848	4.74	0.983	< 5.70
LAMA-84 (chronic myeloid leukaemia, suspension)	0.857	4.87	0.941	< 5.00	0.491	6.93	0.654	7.36	0.779	5.08	0.94	< 5.70
NALM-6 (B-cell leukaemia, suspension)	0.864	4.98	0.835	5.29	0.515	6.87	0.501	7.79	0.156	6.85	0.991	< 5.70
LS-411N (large intestine, adherent)	0.9	< 4.80	0.756	5.39	0.982	< 5.70	0.366	8.20	0.796	4.93	0.981	< 5.70
WIL2-NS (lymphoid neoplasm, suspension)	0.82	5.15	0.82	5.36	0.99	< 5.70	0.641	7.44	0.689	5.42	0.992	< 5.70
MSTO-211H (mesothelioma, adherent)	0.99	< 4.80	0.812	5.33	0.991	< 5.70	0.933	< 6.59	0.98	< 4.70	0.99	< 5.70
KELLY (neuroblastoma, adherent)	0.896	< 4.80	0.767	5.47	0.936	< 5.70	0.715	7.22	0.795	5.08	0.989	< 5.70
